About 260 (0.074%) of roughly 350,000 compounds were called active. Inconclusive results, whose numbers are uncertain, are shown with a selection of clear calls. Calls follow the shape of the dose curve; as a rule, active = well fitted inhibition curve with a large enough effect; inconclusive = small, poorly fitted or top-dose-only effect; inactive = no such curve, though single readings can be large or run the other way. Potencies of inconclusive entries are doubtful fits and often do not repeat.
Target: Ferritin light chain (Equus caballus) (UniProt P02791)
Assay: qHTS Assay for Identification of Novel General Anesthetics; also: nearly all actives have a fitted effect of over 20% in size
Conditions: apoferritin/1-aminoanthracene competitive binding, fluorescence; activity change, negative = displacement: at 77.5 µM (top of the series)
Method in brief: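 Probe: 1-aminoanthracene (50% saturated, PBS). Protein: horse-spleen apoferritin, 10 uM. Incubation: 10 min, room temperature. Detection: 380 nm excitation, 535 nm emission. Analysis: normalized response, four-parameter Hill.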
% is scaled to controls: 0 for no effect and ±100 for the full control effect; potency is read from the fitted curve at half-maximal effect; tags tell the direction and shape of the fitted curve.

Sequence of UniProt P02791 (P02791 whole entry, looked up): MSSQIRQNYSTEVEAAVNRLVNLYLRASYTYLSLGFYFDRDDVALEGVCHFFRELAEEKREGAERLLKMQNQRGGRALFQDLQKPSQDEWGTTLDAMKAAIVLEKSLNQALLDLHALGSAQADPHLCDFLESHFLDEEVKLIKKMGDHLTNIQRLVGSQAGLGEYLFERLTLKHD

Activity change, negative = displacement, inactive:
COc1ccc(CCNC(=O)c2c(C)oc3nc(C)nc(N4CCOCC4)c23)cc1OC 0.0757%, CO/C([O-])=N/c1c[n+](-c2ccc(Cl)cc2)no1 -10.9%, CN(CC(=O)NCCc1ccc(S(N)(=O)=O)cc1)Cc1c(F)cccc1Cl 0.215%, [O][C@H]1[C@@H](O)[C@@H](CO)O[C@@H](O[C@@H]2[C@@H]3OC[C@H]2O[C@H](O[C@@H]2[C@@H](O)[C@H](C[C@@H]4[C@@H]5OC[C@H]4O[CH][C@@H]5O)O[C@H](CO)[C@@H]2OS(=O)(=O)O)[C@@H]3OS(=O)(=O)O)[C@@H]1O 2.58%, c1coc(CNC2CCCCCCC2)c1 -22.8%, CCOc1ccc(S(=O)(=O)N2CCN(S(=O)(=O)c3ccc(C(C)=O)cc3)CC2)cc1 6.9%, Cc1cc(C)nc(SCc2cc(=O)c(OC(=O)c3ccc(Br)o3)co2)n1 -22.3%, CCn1c(=O)c2c(n3c(=S)[nH]nc13)-c1ccccc1CC21CCCCC1 -14.8%, CCCSc1ncc(Cl)c(C(=O)Nc2sc3c(c2C(=O)NCC)CCCC3)n1 5.95%, Cc1c(C(=O)OCC(C)C)[nH]c2c1C(=O)CC(c1ccco1)C2 (configuration not stated) -20.5%, N/C(=N\NC(=O)Nc1ccc(Cl)cc1)c1ccccn1 3.37%

Potency, inconclusive:
CN(C)c1ccc(/C=N/NC(=O)CNC(=O)c2ccc3c(c2)OCCO3)cc1 5.62 µM [inhibitor, full curve], CCN1CCOC(=O)C1CC(=O)Nc1cccc(OC)c1 (configuration not stated) 39.8 µM [inhibitor, single point], CCOC(=O)Cc1csc(NC(=O)CSc2ncnc3c2cnn3-c2ccc(OC)cc2)n1 12.6 µM [inhibitor, partial curve], O=C(Nc1ccc(Cl)c(Cl)c1)Oc1ccc(NC(=O)c2ccco2)cc1 22.4 µM [inhibitor, partial curve], CCC(CC)C(=O)Nc1ccc(Sc2ccc([N+](=O)[O-])cc2)cc1 10 µM [inhibitor, partial curve], C/C(=N\NC(=O)CSc1nc2ccccc2s1)c1ccco1 39.8 µM [inhibitor, single point], CCC(=O)N/N=C(\C)CC(=O)Nc1ccc2c(c1)OCCO2 31.6 µM [inhibitor, single point], COc1cccc(CNC(=O)CN2N=C(c3ccc(C)cc3)CCC2=O)c1 6.31 µM [inhibitor, full curve], O=C(NCc1nnc2c3ccccc3c(-c3ccccc3)nn12)c1ccc(Cl)cc1 11.2 µM [inhibitor, single point], Cc1c(C(=O)NCc2ccccc2)oc2ccc(S(=O)(=O)N3CCCC3)cc12 11.2 µM [inhibitor, partial curve], Cc1ccccc1NC(=O)N1CCCC(c2nc(-c3ccc(F)cc3)no2)C1 (configuration not stated) 22.4 µM [inhibitor, partial curve], Cc1ccc(Nc2nc(N)c([N+](=O)[O-])c(N3CCOCC3)n2)cc1C 17.8 µM [inhibitor, single point], CCCOc1cccc(CN2CCCCC2c2cccnc2)c1 (configuration not stated) 35.5 µM [inhibitor, partial curve], Cc1cccc(-c2nc(SCC(=O)NCC3CCCO3)c3c(=O)n(C)c(=O)n(C)c3n2)c1 (configuration not stated) 0.794 µM [inhibitor, full curve, poor fit], O=c1cc2c(nn1Cc1cccc(Cl)c1)-c1ccccc1CC2 39.8 µM [inhibitor, partial curve], NC(=O)c1cccc2c(=O)oc3ccccc3c12 50.1 µM [inhibitor, single point], N#C/C(=C(/O)COC(=O)c1ccc2c(c1)OCCO2)c1nc2ccccc2[nH]1 35.5 µM [inhibitor, partial curve], O=C1C(=O)N(C2CCCC2)C(=O)N1Cc1c(F)cccc1Cl 50.1 µM [inhibitor, single point], CC(C)c1nnc(NC(=O)c2nc(SCc3ccc(F)cc3)ncc2Cl)s1 22.4 µM [inhibitor, partial curve], CCOc1cccc(/C=N/NC(=S)Nc2ccccc2[N+](=O)[O-])c1O 28.2 µM [inhibitor, partial curve], CCC(C)c1ccc(O)c(N)c1 (configuration not stated) 22.4 µM [inhibitor, partial curve], O=C(NCc1ccccc1Cl)c1ccc[nH]1 31.6 µM [inhibitor, partial curve], Cc1nn(-c2ccc(C(F)(F)F)cn2)c(C)c1Oc1ccccc1O 14.1 µM [inhibitor, partial curve], Cc1cc(/C=N/O)c(C)n1-c1cccc(Cl)c1 28.2 µM [inhibitor, partial curve], Cc1ccc(Oc2ccc3c(c2)C(=O)N(c2cccc4cccnc24)C3=O)cc1 15.8 µM [inhibitor, partial curve], CC(=O)Nc1ccc(S(=O)(=O)N2CCSC2c2ccccc2Cl)cc1 (configuration not stated) 39.8 µM [inhibitor, partial curve], COc1ccc(N(C(=O)c2ccco2)S(=O)(=O)c2cc(Cl)c(Cl)cc2Cl)cc1 14.1 µM [inhibitor, partial curve], COc1ccc(NC(=O)CN(C)CC(=O)Nc2ccc(Cl)cc2[N+](=O)[O-])cc1 17.8 µM [inhibitor, partial curve], COc1ccc(OC)c(CNc2ccc([N+](=O)[O-])cc2C)c1 15.8 µM [inhibitor, partial curve], COc1ccc(NC(=O)Cc2csc(COc3cccc(C)c3)n2)cc1OC 35.5 µM [inhibitor, single point], O=C(Nc1ccc(F)cc1)N1CCCCCC1 25.1 µM [inhibitor, partial curve]

Reference: PubChem BioAssay AID485281 (National Center for Advancing Translational Sciences (NCATS), 2010)
